Experimental data: PMC4336329 (PLoS ONE, 2015)
Screen size: about 310,000 compounds; about 2,200 (0.71%) showed an effect of 50% or more. Effects have a minus sign here. The list shows a part of the results.

The molecules below were run against human ether-à-go-go-related gene (hERG) potassium channel (human, UniProt Q12809) (assay: primary screen, population patch clamp on CHO cells stably expressing hERG).
Chain of human ether-à-go-go-related gene (hERG) potassium channel (Q12809 whole entry, looked up): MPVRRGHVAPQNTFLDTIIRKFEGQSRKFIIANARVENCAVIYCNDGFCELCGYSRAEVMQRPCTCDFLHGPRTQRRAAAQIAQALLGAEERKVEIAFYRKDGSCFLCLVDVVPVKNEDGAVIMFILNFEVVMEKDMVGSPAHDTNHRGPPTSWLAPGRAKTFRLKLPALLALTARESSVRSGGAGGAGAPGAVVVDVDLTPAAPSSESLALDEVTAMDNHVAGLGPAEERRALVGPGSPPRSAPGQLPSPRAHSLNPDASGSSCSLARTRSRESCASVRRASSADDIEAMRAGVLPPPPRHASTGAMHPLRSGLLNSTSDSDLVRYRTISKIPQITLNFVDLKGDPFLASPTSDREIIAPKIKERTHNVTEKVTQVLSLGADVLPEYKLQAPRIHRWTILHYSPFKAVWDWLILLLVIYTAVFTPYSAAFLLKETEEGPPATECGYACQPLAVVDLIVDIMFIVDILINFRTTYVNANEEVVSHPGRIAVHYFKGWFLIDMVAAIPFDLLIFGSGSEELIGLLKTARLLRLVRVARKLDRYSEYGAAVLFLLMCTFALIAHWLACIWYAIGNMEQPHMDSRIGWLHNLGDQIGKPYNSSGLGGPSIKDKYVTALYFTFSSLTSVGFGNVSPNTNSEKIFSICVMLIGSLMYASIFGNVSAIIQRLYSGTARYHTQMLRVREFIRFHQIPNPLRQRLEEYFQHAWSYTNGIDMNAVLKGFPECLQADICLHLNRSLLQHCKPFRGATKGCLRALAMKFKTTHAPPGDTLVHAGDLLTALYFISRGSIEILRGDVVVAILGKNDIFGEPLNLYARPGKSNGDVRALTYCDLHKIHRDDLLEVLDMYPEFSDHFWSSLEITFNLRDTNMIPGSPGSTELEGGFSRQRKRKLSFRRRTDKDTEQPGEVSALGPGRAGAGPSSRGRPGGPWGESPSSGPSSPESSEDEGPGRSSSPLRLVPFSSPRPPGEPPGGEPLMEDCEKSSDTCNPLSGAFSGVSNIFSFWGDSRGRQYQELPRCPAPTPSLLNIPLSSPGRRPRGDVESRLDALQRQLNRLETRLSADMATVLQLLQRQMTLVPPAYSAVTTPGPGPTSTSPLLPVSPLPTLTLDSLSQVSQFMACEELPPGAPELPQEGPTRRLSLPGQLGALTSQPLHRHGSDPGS

| SMILES | hERG current change (%, negative = inhibition) at 1uM |
| --- | --- |
| CN(C)Cc1cc(O)c(CN(C)C)cc1O | 14.7% |
| O=C(COC(=O)CCc1nc2ccccc2c(=O)[nH]1)Nc1ccc(N2CCOCC2)cc1 | -0.012% |
| O=C(C[n+]1ccc(-c2nnc3n2CCC3)cc1)c1ccc(Cl)c(Cl)c1.[Br-] | -4.73% |
| CC(C)C(=O)Nc1cc(S(=O)(=O)Nc2ccc(Cl)cc2)ccc1Cl | 9.57% |
| O=C(Nc1nc(-c2ccccn2)cs1)c1cc(Cl)ccc1[N+](=O)[O-] | 12.5% |
| O=C(NCc1ccc2c(c1)OCO2)C(=O)NCC1OCCCN1S(=O)(=O)c1ccc(F)cc1 (centres unmarked) | 8.73% |
| COC(=O)C(NC(=O)COc1ccccc1)(Nc1nc2c(s1)CCCC2)C(F)(F)F (centres unmarked) | 10.9% |
| Cc1ccc(S(=O)(=O)Nc2ccccc2CNc2cccc(C)n2)cc1 | 0.616% |
| Cc1ccc2c(c1)C(c1ccncc1)=NNC(c1cccnc1)=N2 | -2.36% |
| CC(C)(C)NC(=O)CSc1nnc(NC(=O)CCn2cnc3ccccc3c2=O)s1 | 15% |
| COc1cc(-c2[nH]ncc2CN(C)Cc2nonc2C)cc(OC)c1OC | 2.33% |
| CCNC(=O)C1Cc2cc(S(=O)(=O)N3CCCC3)ccc2N1C(C)=O (centres unmarked) | 11.9% |
| CC1(C)Cc2noc(N)c2C(C)(C)N1O.Cl | 3.45% |
| COc1ccccc1OCC(=O)N1CCCC(Nc2ccc(C)c(C)c2)C1 (centres unmarked) | 6.65% |
| COc1ccc(N2CCN(C(=O)c3ccc(NS(=O)(=O)c4cccs4)cc3)CC2)cc1 | -6.84% |
| CC(=O)C1=C(O)C(=O)N(Cc2ccccc2)C1c1ccc(Cl)cc1 (centres unmarked) | 11% |
| O=C1Nc2ccc3sc4ccccc4c3c2C1=O | 11% |
| CC1Cc2cc(S(=O)(=O)CCC(=O)NC3CCCCC3)ccc2N1C(=O)C1CC1 (centres unmarked) | 16.2% |
| CCOc1cc(-c2noc(CCCC(=O)NC3CCCCC3)n2)ccc1OC | 11.8% |
| CC(C)NC(=O)NC(=O)COC(=O)c1ccccc1O | 3.84% |
| CCCN1CCN(CCCNC(=O)c2ccc3c(=O)n(CCc4ccccc4)c(=O)[nH]c3c2)CC1 | 11.3% |
| CC(=O)c1c(C(C)=O)c(C)n(NC(=O)c2cccnc2)c1C | 9.42% |
| O=C1c2cccc3cccc(c23)C(=O)N1CCN1CCN(C(=S)Nc2ccc(F)cc2)CC1 | 10.7% |

| SMILES | hERG current change (%, negative = inhibition) at 1uM |
| --- | --- |
| Cc1cc(S(=O)(=O)N2CCCC2C(=O)N2CCOCC2)c(C)cc1Cl (centres unmarked) | -0.225% |
| Cc1ccc(C(=O)NC2CCSC2=O)cc1 (centres unmarked) | 16.5% |
| Cc1ccc(OCCOCCN2CCCCC2)c([N+](=O)[O-])c1.O=C(O)C(=O)O | 5.7% |
| CCOC(=O)c1c(C)noc1CP(=O)(c1ccccc1)c1ccccc1 | -4.82% |
| Cc1cc(C)cc(N(C(=O)CCC(=O)Nc2ccccn2)C(C(=O)NC(C)C)c2ccc(O)cc2)c1 (centres unmarked) | 1.99% |
| CC1(C)CC(NC(=O)c2ccc(Cl)c(S(=O)(=O)N(Cc3ccccc3)c3ccccc3)c2)CC(C)(C)N1 | -3.46% |
| [O-][Cl+3]([O-])([O-])[O-].c1ccc(-c2[nH]c(-c3ccccc3)[n+](CC3CO3)c2-c2ccccc2)cc1 (centres unmarked) | -2.8% |
| O=S(=O)(c1ccc(C(F)(F)F)cc1)N1CCN(CCc2ccccc2)CC1 | -2.3% |
| CCOc1ccc(NC(=O)CN(C)C(=O)c2ccc(N3CCCCC3)c([N+](=O)[O-])c2)cc1OCC | -8.96% |
| CC(C)(C)NC(=S)N/N=C/c1c(Cl)cccc1Cl | 15.1% |
| CN1CCC(=NNC(=O)CSCc2ccccc2)CC1 | 4.33% |
| Clc1ccccc1Nc1c2c(nc3ncnn13)CCC2 | -2.68% |
| CN(CC(=O)Nc1ccc(Cl)c(C(F)(F)F)c1)C(=O)CCc1nc2ccccc2c(=O)[nH]1 | -0.246% |
| CC(OC(=O)CCCNC(=O)c1ccc(Cl)cc1)C(=O)N(C)Cc1ccccc1 (centres unmarked) | -11.2% |
| COC(=O)c1cncc(O)c1 | 3.22% |
| O=S(=O)(c1ccc(Br)s1)N1CCN(c2ccnc3cc(Cl)ccc23)CC1 | 6.07% |
| CCCCOc1ccccc1C1C(C(=O)OC)=CN(CC)C=C1C(=O)OC | -0.63% |
| CCc1ccc(CN(C)C(=O)c2cc(COc3cc(C)c(Cl)c(C)c3)on2)nc1 | 18.9% |
| CC(NC(=O)c1ccnc(C(C)(C)C)c1)c1ccccc1 (centres unmarked) | 23.3% |
| COc1ccc(OC)c(C(=O)c2ccccn2)c1 | 9.76% |
| CCCCN(CC)C(=O)c1ccccc1Oc1ccccc1 | 5.27% |
| CC(=O)NS(=O)(=O)c1ccc2sc(C)nc2c1 | 8.85% |
| O=C(Nc1ccccc1SCC1CSc2nc3ccccc3c(=O)n21)c1cccc(Cl)c1 (centres unmarked) | -49.6% |

| SMILES | hERG current change (%, negative = inhibition) at 1uM |
| --- | --- |
| CNc1nc(-c2ccccc2)cc(C(F)(F)F)c1C#N | 12.4% |
| Cc1noc(C)c1COC(=O)CCc1ccc(S(=O)(=O)N2CCCCC2)cc1 | 2.97% |
| O=C1NC(=O)C(Cc2ccccc2)(c2cccnc2)N1 (centres unmarked) | 13.1% |
| Cc1cc(Br)ccc1NC(=O)C1CCN(S(=O)(=O)c2cnc[nH]2)CC1 | 12.3% |
| COc1cccc(Nc2nc(-c3ccccc3)nc3ccccc23)c1 | 10.7% |
| CC(=O)Nc1ccc(Nc2nc(C)cc(C)n2)cc1 | 15.7% |
| CCCn1c(SCC(=O)Nc2cc(S(=O)(=O)N3CCCCC3)ccc2C)n[nH]c1=O | 3.05% |
| CCCC(=O)Nc1cc(C(=O)O)ccc1Sc1ccc(C)cc1 | 10.9% |
| CCOC(=O)CNc1cccc(C(F)(F)F)c1 | 5.6% |
| c1coc(CN2CNc3nc4ccccc4n3C2)c1 | 7.88% |
| S=c1[nH]ccn1CCc1ccccc1 | 13.6% |
| Cc1onc(-c2ccccc2)c1C(=O)Nc1ccc(Br)cc1Cl | 14.5% |
| O=C(COC(=O)CCSc1ccccc1)NCc1ccc(F)cc1 | 11.2% |
| COc1ccc(Nc2ncnc3nc[nH]c23)cc1OC | 12.4% |
| Cc1noc(C(F)(F)F)c1C(=O)NNC(=O)c1cccc(C(F)(F)F)c1 | 14.8% |
| CSc1nc(N2CCN(Cc3ccc4c(c3)OCO4)CC2)c2ccccc2n1 | -1.48% |
| O=C(Nc1nc2c(s1)CCCC2)c1cc(-c2ccccc2)nc2ccccc12 | 5.45% |
| CC(NCC(O)c1ccc([N+](=O)[O-])cc1)C12CC3CC(CC(C3)C1)C2 (centres unmarked) | -35.4% |
| Cc1ccc(CNC(=O)CCNC(=O)c2ccc(Br)o2)cc1 | 4.99% |
| COc1cccc2sc(NNC(=O)C3COc4ccccc4O3)nc12 (centres unmarked) | 12.8% |
| CC1(C)CC(=O)C(C=Nc2cccnc2/N=C/C2=C(O)CC(C)(C)CC2=O)=C(O)C1 | 7.45% |
| COc1c(Br)cc(Br)cc1/C=C1/C(=O)N=C(N)N1C | 8.09% |
| Cc1ccc(S(=O)(=O)N2[C@@H](c3ccccc3F)C(C(=O)O)=CC[C@H]2c2ccc(Cl)cc2)cc1 | 6.33% |

| SMILES | hERG current change (%, negative = inhibition) at 1uM |
| --- | --- |
| Cn1ncc(Cl)c1C(=O)NCc1ccco1 | 7.79% |
| CC(C)=NNC(=O)CN1C(=O)NC2NC(=O)NC21 (centres unmarked) | 8.02% |
| CCC(=O)c1c[nH]c(C(=O)NCC2CCCO2)c1 (centres unmarked) | 6.8% |
| CC1CCc2nc(N)c(C#N)c(-c3cccn3C)c2C1 (centres unmarked) | 1.2% |
| COc1cccc(-c2cc(C(=O)Nc3ccccc3)c3ccccc3n2)c1 | 12.9% |
| COc1ccc(CCC(=O)NCc2cn3ccccc3n2)cc1 | 4.45% |
| CC1(C)Cc2ccccc2C(NNC(=O)c2ccc(Br)o2)=N1 | 7.93% |
| Cc1ccc(CNC(=O)CC(C)S(=O)(=O)c2ccc3c(c2)NC(=O)CS3)o1 (centres unmarked) | 45.5% |
| CCOC(=O)c1ccc(NS(=O)(=O)c2cn(C)cn2)cc1 | 20.3% |
| COc1cccc(Cn2nc3c4cc(F)ccc4n(Cc4ccc(F)cc4)cc-3c2=O)c1 | 17.3% |
| O=C(O)/C=C/C(=O)Nc1ccc(-n2nccc2C(F)(F)F)cc1 | 14.2% |
| CCn1c(=O)c(C(=O)NNC(=O)c2ccccc2Br)c(O)c2ccccc21 | 6.54% |
| N#Cc1c(Nc2ccccc2)c(C=NCCN2CCOCC2)c[nH]c1=O | 13.9% |
| Cc1ccc(S(=O)(=O)N2N=C3CCCCC3C2(O)C(F)(F)F)cc1 (centres unmarked) | 12.6% |
| COc1ccc(N(CC(=O)NCc2ccc3c(c2)OCO3)C(=O)c2csnn2)cc1 | 11.8% |
| CSc1ccc(CN2CCc3c([nH]c4ccccc34)C2)cc1 | -15.2% |
| CCCCCCC(=O)NNC(=O)c1c(O)c2ccccc2n(CCC)c1=O | 10.8% |
| CCN(CC(=O)Nc1cc(Cl)ccc1C)c1ncnc2sc(C)c(C)c12 | 5.24% |
| O=C(NC1CCOC1)c1ccc(OC2CCN(CCc3ccccc3)CC2)cc1 (centres unmarked) | -0.684% |
| Nc1ccc(SC(F)(F)F)cc1 | 21.1% |
